# According to PubChem BioAssay AID686979 (National Center for Advancing Translational Sciences (NCATS), 2013):
# Hit rate of the full screen: of about 420,000 compounds, about 50,000 (12%) were called active. This list was built around the results that the source calls inconclusive (neither active nor inactive); the mix of calls is not that of the screen. The call rests on the fitted dose curve; in most records, active means well fitted inhibition curve with a large enough effect; inconclusive means small, poorly fitted or top-dose-only effect; inactive means flat fitted curve, though single readings scatter. No potency is given beside an inconclusive call; the fits are too rough.
# Assay: qHTS for Inhibitors of human tyrosyl-DNA phosphodiesterase 1 (TDP1): qHTS in cells in presence of CPT; further: nearly all actives have a fitted effect of over 55% in size
# Details: chicken DT40 Tdp1-/-;hTDP1 cells + 20 nM CPT, ATP luminescence, 48 h; activity change, negative = growth inhibition: at 46.2 µM (top of the series) unless noted
# In short: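 Chicken DT40 Tdp1-/- cells stably complemented with human TDP1 were seeded at 400 cells/well in medium containing 20 nM camptothecin, exposed to pin-transferred compounds, and grown at 37 °C for at least 48 hr. Viability was read as ATP luminescence.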
# On the % scale 0 is the no-effect control and ±100 the full control effect; potency means the concentration at half of the fitted maximal effect; tags describe the fitted curve by direction and shape.
SMILES,Potency,"activity change, negative = growth inhibition"
O=C(C1CCC(CNS(=O)(=O)c2cccc3cccnc23)CC1)N1CCc2ccccc21 (configuration not stated),"inconclusive [inhibitor, single point]",–
O=C1/C(=C/c2ccco2)Oc2c1ccc(O)c2CN1CCCCC1,"inconclusive [inhibitor, single point]",–
Cc1cc(C)cc(NC(=O)COc2coc(CN3CCc4ccccc4C3)cc2=O)c1,"inconclusive [inhibitor, partial curve, poor fit]",–
c1ccc(Cn2cc(-c3ccccc3)cn2)cc1,–,inactive: -21.1%
CC(=O)Nc1ccc(Nc2cc(C)nc3c(-c4ccccc4)c(C)nn23)cc1,"inconclusive [inhibitor, single point]",–
CNC(=O)c1cc(Nc2nnc(-c3ccc(C)c(S(N)(=O)=O)c3)c3ccccc23)ccc1OC,–,inactive: 10.9%
Cc1ccc(-c2nnn3c2nc(NCCc2ccc(Cl)cc2)c2ccccc23)cc1,–,inactive: 3.67%
Cc1cc(Br)c(S(=O)(=O)NCc2ccncc2)cc1C,active: 5.8 µM,–
COc1cc(-c2nc3ccc(N4CCN(C)CC4)cc3[nH]2)cc(OC)c1OC,"inconclusive [inhibitor, single point]",–
COc1cc(O)c(C(CCN2CCCCC2)c2cc(OC)c(OC)c(OC)c2)c(OC)c1 (configuration not stated),–,inconclusive: -30.9% [inhibitor]
OC(c1cccc(CN2CCCCC2)c1)c1ncc(-c2cccc(C(F)(F)F)c2)[nH]1 (configuration not stated),active: 14.6 µM,–
CCOC(=O)Nc1ccc2c(c1)N(C(=O)CN1CCN(CCO)CC1)c1ccccc1CC2,–,inactive: -22%
CN1CCN(S(=O)(=O)c2cccc3nsnc23)CC1,–,inactive: -0.296%
CCCOc1ccc(CNC(=O)Cn2ncn3c(cc4sc(CC)cc43)c2=O)cc1,"inconclusive [inhibitor, single point]",–
COc1cc2c(cc1OC)C(C)N(C(=O)c1sc(-c3cnccn3)nc1C)CC2 (configuration not stated),–,inactive: 1.39%
CC(C)(C)OC(=O)N1CCC(NC(=O)c2[nH]cnc2C(=O)Nc2ccccc2F)CC1,"inconclusive [inhibitor, single point]",–
CCCCNC(=O)c1ccc(CS(=O)(=O)c2ccccc2OC)o1,–,inactive: -5.44%
COc1ccc(O)c(/C=N/NC(=S)Nc2cccnc2)c1,"inconclusive [inhibitor, single point]",–
CC1CCCC(C)N1/N=C/c1ccc(Cl)cc1 (configuration not stated),"inconclusive [inhibitor, single point]",–
COc1ccc(-c2sc3cc(OC)c(OC)cc3c2C#CCO)cc1,active: 18.4 µM,–
O=C(O)/C=C/c1ccc2ccccc2c1,–,inactive: 1.97%
CC(=O)c1cccc(-c2ccnc3c2CC(C(=O)Nc2ccc(C(C)C)cc2)O3)c1 (configuration not stated),active: 23.1 µM,–
O=C(CCc1nc(-c2ccc(Cl)cc2)no1)NC1CCCC1,"inconclusive [inhibitor, single point]",–
CCCOc1ccc2oc(=O)c3c(c2c1)CCCN3C(=O)CN1CCc2ccccc2C1,"inconclusive [inhibitor, single point]",–

SMILES,Potency,"activity change, negative = growth inhibition"
CC[N+]1(CC)CC2=Cc3c(ccc4ccccc34)CC2C1 (configuration not stated),"inconclusive [inhibitor, single point]",–
COc1cccc(C2CC(c3cccc(C)c3)n3ncnc3N2)c1 (configuration not stated),–,inconclusive: -35.9% [inhibitor]
Cc1ccc(C)c(OCC(=O)Nc2ccc3c(c2)OCO3)c1,"inconclusive [inhibitor, single point]",–
Cn1c(=O)[nH]c(=O)c2c1nc(N/N=C/c1ccncc1)n2Cc1ccc(Cl)cc1,"inconclusive [inhibitor, single point]",–
CC1CN(C(=O)CCNC(=O)c2ccc(Br)cc2)CC(C)O1 (configuration not stated),–,inactive: -0.355%
CC(C)[C@@H]1[C@H]2CC[C@H](C2)[C@H]1N,–,inactive: 14.4%
CSCCC(NS(=O)(=O)c1ccc(Cl)cc1)C(=O)N1CCN(c2ccccc2)CC1 (configuration not stated),"inconclusive [inhibitor, single point]",–
Cc1nc2ccccc2cc1O,–,inactive: -22.8%
Cc1ccc(-c2nc3ccccn3c2Nc2ccccc2C)s1,"inconclusive [inhibitor, single point]",–
Cc1ccc2cc(CN(Cc3nnnn3Cc3ccco3)CC3CCCO3)c(=O)[nH]c2c1C (configuration not stated),"inconclusive [inhibitor, single point]",–
Cc1c(C(=O)N2CCCCCC2)c(S(=O)(=O)NCc2ccc(Br)cc2)c(C)n1C,"inconclusive [inhibitor, single point]",–
CC(C)c1ccccc1NC(=O)Cn1c(/C=C/c2ccccc2)nc2ccccc21,active: 18.4 µM,–
O=S(=O)(c1ccc(F)cc1)N1CCN(c2nc(-c3cccs3)nc3ccccc23)CC1,"inconclusive [inhibitor, single point]",–
CCC(CO)NS(=O)(=O)c1cc(-c2nn(C)c(=O)c3ccccc23)ccc1C (configuration not stated),"inconclusive [inhibitor, single point]",–
COCOCCn1cc(CN2CCS(=O)(=O)N(Cc3ccc(-c4ccccc4)cc3)C(CC(C)C)C2=O)nn1 (configuration not stated),"inconclusive [inhibitor, single point]",–
C/C(=C\c1ccc2c(c1)OCO2)C(=O)c1c(C)cc(C)[nH]c1=O,–,inactive: -21.5%
CCc1ccc(NC(=O)Cn2c3[n+](c4c(F)c(F)ccc42)CCCCC3)cc1,active: 2.59 µM,–
O=C1C=CC(c2ccccc2)(c2ccccc2)CC1,"inconclusive [inhibitor, single point]",–
CCOC(=O)Nc1cccc(OCC(=O)Nc2ccc(OC)cc2OC)c1,"inconclusive [inhibitor, single point]",–
COc1ccc(Nc2cc(C(=O)NC3CCC(C)CC3)c3ccccc3n2)cc1OC (configuration not stated),"inconclusive [inhibitor, single point]",–
NC(=O)C(F)(F)C12OC3C4C5CC(C6C5C3C61)C42 (configuration not stated),–,inactive: -4.92%
CN(/N=C/c1cc(Cl)cc(Cl)c1O)C(=S)NC(C)(C)C,"inconclusive [inhibitor, single point]",–
COc1ccc(C(C(=O)NC(C)(C)C)N(C(=O)CNC(=O)c2cccs2)c2cccnc2)cc1OC (configuration not stated),–,inactive: 2.09%
